To fix the notation:
B1: LINE1-mini (parent)
chain: GGCAGAGCUCAACACAGCGUGGCAAAGUGGCUGUGGCUAGACUGCC

The values below come from the RNAGym collection of RNA variant scans (doi:10.7554/elife.90254).

Read counts are not given, so values of variants with three or more changes are uncertain.

This data set covers variants of B1. The experiment in a line: self-cleavage, relative activity (ratio to wild type); higher = more cleavage; in vitro, sequencing; the parent is a self-cleaving ribozyme.
Take GACAGAGCUCAACACAGAGUGGCAAAGUGGUUGUGCAUAGACUGCC: the self-cleavage is 0.01.
For GACAUACCUCAAAAAAGCGUGGCAAAGUGGCUGUGGUUAGACUGCC the value was 0.37; for GACAGAGCUCAAAACAUCGUGGCAAAGUGGCUGUGGCUAGACUGCC, 0.42.
For GACACAGCGCAACACAGCGUGGCAAAAUGGCUGUGGCUAGACUGCC the value was 0.08; for GACAGAGCUCAACACAGGGUGGCAAAGUGGCUGGGGCUACACUGCC, 0.08.
In the case of GACAGAGCUCAAUACAGCGUUGCAAAGUGGCUCUGGCUAGACUGCC, the self-cleavage amounted to 0.04.
In the case of GACAGAGCUAAACACAGCGUGGAAAAGUGGCUGUGGAUAGACUGCC it was 0.01; in that of GACAGAGCUGAACACAGCGUGGCAAAUUGGCUGUGGCUAGACUGCC, 0.24.
For GACAGAGCUGAACACAGCGUGGCAAAGUGGCUGUGGUUAGACUUCC, the self-cleavage was 0.02.
For GACAGAGCUAAACACAGCGUGGCAAAGUGGCUGUGGAUAGACUGCC the value was 0.06; for GACAGAACUCAACACAGCGUGGCAAAGUGGCCGUGACUACACUGCC, 1.35.
For GACAGAGCUCAACACAAAGUGGCCAAGUGGCUGUGGCUAGACUGCC, the self-cleavage was determined as 0.5.
In the case of GACAUAGCUCAACACAGCGUGUCAAAGUGGCUGUGACUAGACUGCC it was 0.1; in that of GACAGAACUCAACCCAGCGUGGCAAAGUGGCUGGGGCUAGACUGCC, 0.15; in that of GACAGAGCUAAACACAGGGUGGCAAAGUGGCUGUGGCUAGACUGCC, 0.03.
Turning to GACAGAGCUCAACAGAGCGUGGCAAAGUGACUGUGGCUAGACUGUC, the self-cleavage was found to be 0.04.
With GACAGAGCUAAACACACCGUGGCAAAGUGGCUGUGGCAAGACUGCC, the self-cleavage was 0.04.
In the case of GACAGAACUCAACACAGCUUGGCAAAGUGGCUGUCGCUAGACUGCC it was 0.13.
Consider GACAGAGCUCAACACAGCGUGGUAAAGUGGCUGUGGCUAGAAUGUC, for which the self-cleavage was found to be 0.9.
For the variant GACAGAGCUCAACACAGCGUGGCAAAGUGGCUGUGGAUAGGCUGCC, the self-cleavage amounted to 0.2.
In the case of GACAGAUCUCAACACAGCGUGGCAAAGUGGCUGUGGCUGGACUGCC it was 0.72.
For GACAGACCUCAACACAGCGUGGCCAAGUGGCUGUGGCUAGACUGCC the value was 0.42; for GACAGAGCUCAACAGAGCGUGGCAAAGUGGCUGUGGCUUGACUGCC, 0.08; for GACAGAGCUCAAAACAGCGUGAUAAAGUGGCUGUGGCUAGAAUGCC, 0.38.
GACAGAGCUCAACACAGUGUGGCAAAGUGGCUGUGGCUAGACUUCC: the self-cleavage amounted to 0.3.
GACAGAGCUCAACACAACGUGGCAAACUGGCUCUGGCUAGUCUGCC: the self-cleavage amounted to 0.04.
In the case of GACAGAGCUCAAUACAGCUUGGCAAAGUGCCUGUGGCUAGACUGCC it was 0.09; in that of GACAGAGCUUAACACAGCGUGGCAAAGUGGCUGCGGCUAGACUGCC, 0.06.
For GACAGAGCUUAACACAGCGUGGCCAAGUGACUGUGGCUAGACUGCA the value was 0.05; for GACAGAGCUCAAAACUGCGUGGCAAAGUGGCUGUGGCUAGACUGCC, 0.18.
For GACAGAUCUCAACACAGCGUGGCAAAGUGGCUGUGGCUAUAUUGCC the value was 0.14; for GACAGAGCUCAACACAGAGGGGCAAAGUGGCUGUGCCUAGAAUACC, 0.03; for GACAGAACUCAACACAGCGAGUCAAAGUGAGUGUGGCUAGACUGCC, 0.17.
Take GACAGAGCUCAAAACAGCGGGGCAAAGUGUCUGUGGCUAGUCAGCC: the self-cleavage worked out at 0.01.
For GACAUAACUCAACACAGCGUGGCAAAGUGGCUGUGGCUAGACUGCC, the self-cleavage is 0.67.
As to GACAGAGCUAAACACAGCGUCGAAAAGUGGCUGUGGCUAGACUGCC, the self-cleavage stood at 0.05.
With GACAGAGCUCAACACAGUGUGGGGAAGUGGCAGUGGCUGGACUGCC, the self-cleavage came out at 0.08.
In the case of GACAGAGCUAAACACAGAGUCGCAAAGUGGCUGUGGCUAGACUGCC, the self-cleavage came to 0.05.
With GACAGAGCUCAACAUCGCGUGGCAAAGUGGCUGUGGCUAGACUGUC, the self-cleavage came to 0.06.
For GACAGAGCUCAACACAGCGUGGCAAAGUGGGUGUACCUAGACUGCC the value was 0.16.
For GACAGAGCUCAAAACAGCGUGGCAAAGUGGCUAUGGCUAGACUGCC the value was 0.12; for GACAGAUAUCAACACAGCGUGGCAAAGUGGCUGUGGCUAGACUACC, 0.69; for GACACAGCUCAACACAGCGUGGCAAAGUGGCUGUGGCUAGACUACC, 0.03.
In the case of GACAGAGCUCAACAAAGCGUGACAGAGGAGCCGUGGCUAGACUUCC it was 0.06; in that of GACAGAGCUGUACACAGCGUGGCAAAGUGGCUGUGGCUAGACUCCC, 0.03; in that of GACAGAGCUCAACACAGCGUGGGCCAGUGGCUGUGGCUAGACUGCC, 0.15.
As to GACAAAGCUCAACACAGCGUGGCAAACUGGCUUUGGCUAAACCGCC, the self-cleavage turned out to be 0.23.
For GACACAGCUCAACACAACGUGGCAAAGUAGCUGUGGCUAGACUGCC the value was 0.05; for GACAGAGCUCAACACAGGGUGGCACAGUGGCUGUGGUUAGACCGCC, 0.01; for GACAAAGCUCAACAUAGCGUGGCAAAGUGGCUGUGGCUAGACUGCC, 1.76.
For GACAGAGCUCAAGACAGCGUGGCAAAGUGGCUGUAGCUAGCCUGCC the value was 0.1; for GACAGAGCUGAACACAGCGUGGCAAAGGGGCUGUGGCUAGACUGCC, 0.07.
GACAAAGCUCAACACAGCGUGGCCAAGUGGCUGUGCCUAGGCUGCC: the self-cleavage amounted to 0.21.
For GACAAAGCUCAACACAGAGUGACAAAGUGGCUGUGGCUAGACUGCC the value was 0.11.
For GACAGACCUAAACACAGCGUGGCAAAGUGGUUGUGGCUGGAAUGCC the value was 0.08.
In the case of GACAGAACUAAACACAUCGUGGCAAAGUGGCUGUGGCUAGACUGCC, the self-cleavage is 0.11.
